From article PMC12136788 come the findings set out here.

To fix the notation:
T1: UNK ZnF1-3 (human, UniProt Q9C0B0 31-174)
T1 sequence: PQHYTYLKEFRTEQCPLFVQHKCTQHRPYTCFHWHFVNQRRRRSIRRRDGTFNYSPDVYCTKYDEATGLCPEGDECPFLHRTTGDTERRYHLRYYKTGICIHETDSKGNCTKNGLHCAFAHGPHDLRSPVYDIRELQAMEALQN

B1: chr14:67423352:67423353:-_ENSMUSG00000022048_ENSMUST00000022629|mus_hu|FALSE|FALSE (ssRNA)
RNA: GGGAGUUCUACAGUCCGACGAUCGGACCAGGAUGACACAGCACUAUGCUUGCAAUGGCAAACGCUCAAAUCCUUUAGGCGGACCCAACGACCACCAUGAAAUGGUAGACCUGGGAGGUGAAAAGAUAAUGGGGCAAGGGAGGACAACAGAGGAUUGAGCAUCA
B2: chr7:54825262:54825263:-_ENSG00000132432_ENST00000352861|hu_hu|hu_hu_hu_mus_False|38_68 (ssRNA)
RNA: GGGAGUUCUACAGUCCGACGAUCCUGCCGGCUGGGCUCCACAAACUGCAUUACCUGAUCCAUGUUUUACCCAACCGGGAUUGAGAGCGUAGAGACAACGUAGCACUGAGAGAACCGAGCCCAACGGAACCGGAAGCUGGCAACCAACAGAGGAUUGAGCAUCA
B3: chr19:36933551:36933552:+_ENSMUSG00000024811_ENSMUST00000025729|mus_mus|motif|central (ssRNA)
RNA: GGGAGUUCUACAGUCCGACGAUCAUGGCCUUUAAAUUCAUACGAUAAUCUUUCCUUCAGCUGUGCCGUGGGGGCCAGGUCGGUAGCACUUUUAUUGUGACAGUUCAGCAGGGUUGGAUCUGCCCCGUAACUUAGGAGGAGAGACAACAGAGGAUUGAGCAUCA
B4: chr4:76721835:76721836:+_ENSG00000138768_ENST00000264904|hu_mus|hu_hu_hu_mus_True|48_58 (ssRNA)
RNA: GGGAGUUCUACAGUCCGACGAUCGUUUGGCUGGGGUUUCUGAGACGCUCUGGAAUAUAACUCAUGUUUGCUAAUAAUCCUAGUUUCUCUAUGAAAUUUCUCUUUGCCAAUCCUCUUCUCUAUUAGUUGCUUUAGUUUCUCUUUCAACAGAGGAUUGAGCAUCA
B5: chr16:87451109:87451110:-_ENSG00000140948_ENST00000268616|hu_hu|FALSE|FALSE (ssRNA)
RNA: GGGAGUUCUACAGUCCGACGAUCCUUCUCCAUGGAGAGCUGCUUAAAGACGGGGUAAUACUUGUGCAAACGCAGUUUCCUAAGCCAGUCUAGAAUCCCAUUCUGCUCCUGGGUCUGAGGGGUCUGCAGACUGGAAGGCAUGAGCAACAGAGGAUUGAGCAUCA
B6: chrX:71549762:71549763:+_ENSMUSG00000019087_ENSMUST00000019231|mus_mus|mus_mus_mus_hu_False|38_68 (ssRNA)
RNA: GGGAGUUCUACAGUCCGACGAUCAAACCCGUGUACUUCUUAUUGUUAGCACAACAUCACCAGAAAAAAAACAUAACAGCCAAGCAGGACAGACAGUCAAGUAGUCUUUCCACACUCCCAAACUCAGGGAGCCCUAUAACCUUACAACAGAGGAUUGAGCAUCA
B7: 32046403_32047425_1754_CDS_ENSMUSG00000024400_ENSMUST00000025264|mouse|control|control (ssRNA)
RNA: GGGAGUUCUACAGUCCGACGAUCUAACUUAAUAUCCUCUUUCCUGUCAUUCAGCACCUCAUUUGGAGCAGGAAUUGGGACUUUAUUUUGCAUCCAGGCCUGCUGGAACUGGGCAGGAAUGGGCUUCGCAUAGGGGACUUUCUUCAACAGAGGAUUGAGCAUCA
B8: 77714292_77722976_382_3pUTR_ENSMUSG00000025427_ENSMUST00000026494|mouse|control|control (ssRNA)
RNA: GGGAGUUCUACAGUCCGACGAUCGGGGUGGACAGACACUCGAUCCUGAUUCCGCCUGGGAUGCGAGACGAGCCUGCGGUGCUGAGCUUCCAGGAGCUGCUGCUGCAGCAGGUAUUGCUGGUGCAGGGCCUGAGGUAGGAAGGACAACAGAGGAUUGAGCAUCA
B9: chr11:115359427:115359428:-_ENSMUSG00000020737_ENSMUST00000021083|mus_mus|motif|central (ssRNA)
RNA: GGGAGUUCUACAGUCCGACGAUCUCCCAAGCAUGGGACAACAAACAGACAGACAGAAGGACAGAGUUCCAACACAAGAAGCGGACCCAAGACCAGGCUGGACUUGCCGCCAGGGGGGUUUCUCCUGGAUGGCACUGGGGCUGGCAACAGAGGAUUGAGCAUCA
B10: 157159236_157160167_481_CDS_ENSG00000105993_ENST00000429029|human|control|control (ssRNA)
RNA: GGGAGUUCUACAGUCCGACGAUCAAAUGAAAAUGGGUCCCUUCCACCAAAAAAUUCCCUGAAGACAUCAUCUGGGUUACGGAAUGUGAAGCCAAAUUCAAAUGGACUGUCAAAAUGACUUCCACCUCCUCCUCCACCAUUUAACAACAGAGGAUUGAGCAUCA
B11: 59627789_59627909_950_CDS_ENSMUSG00000039585_ENSMUST00000128341|mouse|control|control (ssRNA)
RNA: GGGAGUUCUACAGUCCGACGAUCUAAGAGAGUUUUCUCAUUCAAAUCAGGCAAGCUACAUAAAUCAUCAAAGUCUUUCUGUUGAGGCUGUGGAAGAAAACCCCGCUCCAUCAUCCUGCGGCGUUCUUCGGUUACCCGUAGCCACAACAGAGGAUUGAGCAUCA
B12: chr7:54823571:54823572:-_ENSG00000132432_ENST00000352861|hu_mus|hu_hu_hu_mus_False|1_108 (ssRNA)
RNA: GGGAGUUCUACAGUCCGACGAUCUCCCAUUAUAGCAAAUCCUAUAGCUGUAGCCAUGGCAAUCUUCUGGAAUUCUUUUCUGUCGGGUUUGGUGCAUCUUUUAACCAGCCGAAUUGAGUCCUUUACAAACUGCCGGCUUGGCUCCAACAGAGGAUUGAGCAUCA
B13: chrX:140365796:140365797:-_ENSMUSG00000031285_ENSMUST00000033642|mus_mus|mus_mus_mus_hu_False|38_38 (ssRNA)
RNA: GGGAGUUCUACAGUCCGACGAUCCUUCUCAUUACUCAGUGCCUGCAAGGUUCUGGUUCGGUAGAAGCUACAGUGGGCGCUGUGAGUGGGGCUAGGCAGUCCAUUCAUCCGGGAGCCUCGCAUGUUCCUGGAUGUCUUAUCUCUCAACAGAGGAUUGAGCAUCA
B14: chr17:26875717:26875718:-_ENSG00000109103_ENST00000335765|hu_hu|FALSE|FALSE (ssRNA)
RNA: GGGAGUUCUACAGUCCGACGAUCCCGAAUCUUAAACCUGACAAAGUCGAUCUUGUAGAUAUUCUCCUCAGGGGAGCAGAGGUAGUCACCGGUGAUCCGCUGCAGCCCCAGCACGUCCUCCGGCCCGAUCGGCUGCUUCCUCUGCAACAGAGGAUUGAGCAUCA
B15: chr8:104447970:104447971:+_ENSG00000164934_ENST00000297579|hu_hu|hu_hu_hu_mus_False|48_68 (ssRNA)
RNA: GGGAGUUCUACAGUCCGACGAUCAUACACUUCCCUGCUUCGGCUCUUGUCCACAGGAAAGAUUCUAAUAGAUUUAUCAAAGCUGGCAGACACAAACUCCUUCCCAGUGGGAGAGUAGUCCACAUCAAGUACUGCAGACACGUGCAACAGAGGAUUGAGCAUCA
B16: chr5:37680062:37680063:+_ENSMUSG00000029121_ENSMUST00000031004|mus_hu|mus_mus_mus_hu_False|48_58 (ssRNA)
RNA: GGGAGUUCUACAGUCCGACGAUCUUUGGGUGUAGCUGGUACCUCGUACACAGGACCGUCAUACAUGCCCCUGGAAACACUAUGCAACCCGAAAACCUUAUUCCUGAUUUUGACGCGCUGGUACAGGUGCUCCGGGAACGCCUUCAACAGAGGAUUGAGCAUCA
B17: chr2:148695906:148695907:-_ENSG00000115947_ENST00000542387|hu_mus|FALSE|FALSE (ssRNA)
RNA: GGGAGUUCUACAGUCCGACGAUCCACCAUUUGAAAAUUAAAGGGCUCCUCUUCAUAUAUGUCAUUUAAAUGUUUCAUUGCUAUUAUAAGACAGAUUUCCAAGACUGACAGACCAUGUACAAUAUUCGCCUUAGAAUCCAAGCUCAACAGAGGAUUGAGCAUCA
B18: 112063845_112063965_144_3pUTR_ENSG00000091972_ENST00000383681|human|control|control (ssRNA)
RNA: GGGAGUUCUACAGUCCGACGAUCACCCCAUGGUUCUCGCUGAAGGUGACCAUGUUUUCUGGGCUUACAGCUUUCUUUUUCUGCCAUGUCACAAUGAGGGCUUCCUGGGCAUUUUGCAGAGAGCAUUUUAAGGAAGCAGGUGUGCAACAGAGGAUUGAGCAUCA
B19: chr1:151372964:151372965:+_ENSG00000159377_ENST00000290541|hu_hu|FALSE|FALSE (ssRNA)
RNA: GGGAGUUCUACAGUCCGACGAUCCUUCGAGCGCCGGCUGUACAUGGCCCUGGUCAGCCAUGAAUGAAUAGCUCUAGGACUAUAGCUGUGUCCAUCUCCCAGAAGCUCCUCAUCAAUCACCAUCUGGCCGAGAACUUGCUUCAACAACAGAGGAUUGAGCAUCA
B20: chr4:138453181:138453182:-_ENSG00000189184_ENST00000344876|hu_hu|FALSE|FALSE (ssRNA)
RNA: GGGAGUUCUACAGUCCGACGAUCGUUCCUCAUAAAUCCUGUAUUUCAAAUUCUUGCCCAGUACAUCGUGGUUGAAAGAUACUAUCAGAAGUGCAAAAACAAACCUAAAGUGCAUUUUAGCAUUCAUUUGGUGCAUUGGUCAGUCAACAGAGGAUUGAGCAUCA
B21: chr11:77340908:77340909:-_ENSG00000074201_ENST00000525064|hu_hu|hu_hu_hu_mus_True|98_98 (ssRNA)
RNA: GGGAGUUCUACAGUCCGACGAUCGUUUGGAUCCCUGGAUAAUGCAUGUAAACUAAUGGUGGGGUAUUCCAGUGAGAAUCCUAAUCCCGAACCAUCUAACCAGGACAGGCGGCUCUCCGCGAUGUAAAGCGUGCCGGUGCCGAGCAACAGAGGAUUGAGCAUCA
B22: chr3:9412954:9412955:+_ENSG00000134077_ENST00000452837|hu_mus|hu_hu_hu_mus_False|48_78 (ssRNA)
RNA: GGGAGUUCUACAGUCCGACGAUCGGUUGAUAUCUCUUCUUUGAUGGCUGGAUUUUCAUAAUAAUCUAAGAUAUGUGAAUCUGAAGUAUGGCUAGUGUGCUUUUUCUUACCAUCUUUCUCAUCUGCUUUGUCUCCUUGUCCACACAACAGAGGAUUGAGCAUCA

The list shows a part of the results.

In this assay the target is T1, UNK ZnF1-3. The experiment in a line: nsRBNS (natural sequence RNA bind-n-seq); RBNS binding buffer (assumed for nsRBNS): 25 mM Tris pH 7.5, 150 mM KCl, 3 mM MgCl2, 0.01% Triton X-100, 500 ug/ml BSA, 20 U/ml SUPERase-In, 4 C; UNK is unkempt and MSI1 is Musashi-1; names of the RNAs are library labels; protein concentration not given here; high values mean tight binding.
On to B1, for which the binding signal came out at 1.98 enrichment R.
B2 came in with a binding signal of 1.14 enrichment R.
The same measure for B3: 1.18 enrichment R; for B4: 0.399 enrichment R; for B5: 0.893 enrichment R.
Then B6, with 1.42 enrichment R; and B7, with 0.714 enrichment R.
In the case of B8, the binding signal is 0.814 enrichment R.
Then B9, with 0.999 enrichment R.
On to B10, for which the binding signal is 1.29 enrichment R.
B11 registered a binding signal of 0.987 enrichment R.
With B12, the binding signal came out at 0.79 enrichment R.
Then B13, with 0.452 enrichment R; and B14, with 0.74 enrichment R; and B15, with 1.03 enrichment R.
Then B16, with 0.654 enrichment R; and B17, with 2.27 enrichment R; and B18, with 0.781 enrichment R.
B19: the binding signal is 1.06 enrichment R.
B20 showed a binding signal of 1.08 enrichment R.
The same measure for B21: 0.947 enrichment R.
Turning to B22, the binding signal came to 0.407 enrichment R.
